According to the supplement of paper PMC9151546:
Single values are uncertain, as repeats are few or missing.

Legend:
CHO-K1 [1] = test: relative survival (nuclei to bead ratio vs DMSO control) (% of vehicle control); higher = more surviving cells
Procedure: (§1)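 Flow-cytometric in vitro micronucleus assay (Litron MicroFlow) in CHO-K1 cells in 96-well plates, 19 concentrations (4.5-200 µM, n=1 per concentration). Without S9, cells were exposed for 24 h and sampled at 48 h. With Aroclor 1254-induced rat liver S9, cells were exposed for 3-4 h and sampled at 27-28 h. Read-outs are %MN and %hypodiploid nuclei relative to nucleated events, and relative survival as the nuclei-to-bead ratio versus the 1% DMSO vehicle control (x100).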

CHO-K1 [2] = test: micronucleus frequency (% of nucleated events); higher = more micronuclei (genotoxic)
CHO-K1 [3] = test: hypodiploid nuclei frequency (% of nucleated events); higher = more hypodiploid events (aneugenic)
Procedure: as §1
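Wherever hypodiploid nuclei frequency (% of nucleated events) is given: hypodiploid nuclei gated on a flow cytometer with 488 nm excitation after SYTOX Green staining, cultures at 37 °C, positive controls vinblastine without S9 and cyclophosphamide with S9.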
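Wherever micronucleus frequency (% of nucleated events) is given: cells lysed with nuclei stained by SYTOX Green, then micronucleus-gated events counted against nucleated events by flow cytometry with 488 nm excitation.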
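Wherever relative survival (nuclei to bead ratio vs DMSO control) is given: Lysed-cell nuclei stained with SYTOX Green and counted against counting beads by flow cytometry at 488 nm excitation, with vinblastine (no S9) and cyclophosphamide (plus S9) as positive controls.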

Cc1cccc2ccccc12 [1-Methylnaphthalene]
Conditions	hypodiploid nuclei frequency, CHO-K1 [3] [%]	micronucleus frequency, CHO-K1 [2] [%]	relative survival, CHO-K1 [1]
concentration: 4.5 (µM), S9 metabolic activation: with S9, exposure time: 3-4 hours	0.42	1.54	111
concentration: 4.5 (µM), S9 metabolic activation: without S9, exposure time: 24 hours	0.64	1.06	125
concentration: 5.63 (µM), S9 metabolic activation: with S9, exposure time: 3-4 hours	0.3	1.16	130
concentration: 5.63 (µM), S9 metabolic activation: without S9, exposure time: 24 hours	0.96	1	118
concentration: 7.04 (µM), S9 metabolic activation: with S9, exposure time: 3-4 hours	0.18	0.9	133
concentration: 7.04 (µM), S9 metabolic activation: without S9, exposure time: 24 hours	0.4	1.24	91.9
concentration: 8.8 (µM), S9 metabolic activation: with S9, exposure time: 3-4 hours	0.2	0.62	147
concentration: 8.8 (µM), S9 metabolic activation: without S9, exposure time: 24 hours	0.5	1.18	130
concentration: 11 (µM), S9 metabolic activation: with S9, exposure time: 3-4 hours	0.28	1.24	140
concentration: 11 (µM), S9 metabolic activation: without S9, exposure time: 24 hours	0.48	1.2	144
concentration: 13.7 (µM), S9 metabolic activation: with S9, exposure time: 3-4 hours	0.22	1.24	137
concentration: 13.7 (µM), S9 metabolic activation: without S9, exposure time: 24 hours	0.5	1.34	104
concentration: 17.2 (µM), S9 metabolic activation: with S9, exposure time: 3-4 hours	0.2	1.38	166
concentration: 17.2 (µM), S9 metabolic activation: without S9, exposure time: 24 hours	0.48	1.06	123
concentration: 21.5 (µM), S9 metabolic activation: with S9, exposure time: 3-4 hours	0.18	1.28	144
concentration: 21.5 (µM), S9 metabolic activation: without S9, exposure time: 24 hours	0.28	1.2	126
concentration: 26.8 (µM), S9 metabolic activation: with S9, exposure time: 3-4 hours	0.1	0.9	150
concentration: 26.8 (µM), S9 metabolic activation: without S9, exposure time: 24 hours	0.56	1.06	135
concentration: 33.6 (µM), S9 metabolic activation: with S9, exposure time: 3-4 hours	0.28	1.06	143
concentration: 33.6 (µM), S9 metabolic activation: without S9, exposure time: 24 hours	0.64	1.36	161
concentration: 41.9 (µM), S9 metabolic activation: with S9, exposure time: 3-4 hours	0.34	1.18	119
concentration: 41.9 (µM), S9 metabolic activation: without S9, exposure time: 24 hours	0.6	1.62	174
concentration: 52.4 (µM), S9 metabolic activation: with S9, exposure time: 3-4 hours	0.3	1.2	121
concentration: 52.4 (µM), S9 metabolic activation: without S9, exposure time: 24 hours	0.86	1.76	142
concentration: 65.5 (µM), S9 metabolic activation: with S9, exposure time: 3-4 hours	0.18	1.18	125
concentration: 65.5 (µM), S9 metabolic activation: without S9, exposure time: 24 hours	0.5	1.38	155
concentration: 81.9 (µM), S9 metabolic activation: with S9, exposure time: 3-4 hours	0.32	1.1	103
concentration: 81.9 (µM), S9 metabolic activation: without S9, exposure time: 24 hours	0.78	1.5	151
concentration: 102 (µM), S9 metabolic activation: with S9, exposure time: 3-4 hours	0.18	1.1	121
concentration: 102 (µM), S9 metabolic activation: without S9, exposure time: 24 hours	0.68	2.1	157
concentration: 128 (µM), S9 metabolic activation: with S9, exposure time: 3-4 hours	0.14	1.22	128
concentration: 128 (µM), S9 metabolic activation: without S9, exposure time: 24 hours	1.08	1.32	105
concentration: 160 (µM), S9 metabolic activation: with S9, exposure time: 3-4 hours	0.14	1.28	103
concentration: 160 (µM), S9 metabolic activation: without S9, exposure time: 24 hours	0.64	2.76	139
concentration: 200 (µM), S9 metabolic activation: with S9, exposure time: 3-4 hours	0.38	2.5	98.3
concentration: 200 (µM), S9 metabolic activation: without S9, exposure time: 24 hours	1.04	2.74	135

O=c1[nH]cnc2c1ncn2[C@H]1CC[C@@H](CO)O1 [2',3'-Dideoxyinosine]
Conditions	hypodiploid nuclei frequency, CHO-K1 [3] [%]	micronucleus frequency, CHO-K1 [2] [%]	relative survival, CHO-K1 [1]
concentration: 4.5 (µM), S9 metabolic activation: with S9, exposure time: 3-4 hours	0.3	1.52	94.9
concentration: 4.5 (µM), S9 metabolic activation: without S9, exposure time: 24 hours	0.76	1.3	98.4
concentration: 5.63 (µM), S9 metabolic activation: with S9, exposure time: 3-4 hours	0.1	1.64	94.3
concentration: 5.63 (µM), S9 metabolic activation: without S9, exposure time: 24 hours	0.46	1.72	74.3
concentration: 7.04 (µM), S9 metabolic activation: with S9, exposure time: 3-4 hours	0.36	1.34	115
concentration: 7.04 (µM), S9 metabolic activation: without S9, exposure time: 24 hours	0.36	1.04	140
concentration: 8.8 (µM), S9 metabolic activation: with S9, exposure time: 3-4 hours	0.18	1.32	104
concentration: 8.8 (µM), S9 metabolic activation: without S9, exposure time: 24 hours	0.62	1.66	90
concentration: 11 (µM), S9 metabolic activation: with S9, exposure time: 3-4 hours	0.42	2.26	112
concentration: 11 (µM), S9 metabolic activation: without S9, exposure time: 24 hours	0.56	1.18	102
concentration: 13.7 (µM), S9 metabolic activation: with S9, exposure time: 3-4 hours	0.2	1.7	109
concentration: 13.7 (µM), S9 metabolic activation: without S9, exposure time: 24 hours	0.36	1.8	103
concentration: 17.2 (µM), S9 metabolic activation: with S9, exposure time: 3-4 hours	0.3	1.76	116
concentration: 17.2 (µM), S9 metabolic activation: without S9, exposure time: 24 hours	0.38	1.64	99.5
concentration: 21.5 (µM), S9 metabolic activation: with S9, exposure time: 3-4 hours	0.16	1.18	124
concentration: 21.5 (µM), S9 metabolic activation: without S9, exposure time: 24 hours	0.74	1.64	85.3
concentration: 26.8 (µM), S9 metabolic activation: with S9, exposure time: 3-4 hours	0.2	1.06	110
concentration: 26.8 (µM), S9 metabolic activation: without S9, exposure time: 24 hours	0.2	1.6	72
concentration: 33.6 (µM), S9 metabolic activation: with S9, exposure time: 3-4 hours	0.24	1.86	77.7
concentration: 33.6 (µM), S9 metabolic activation: without S9, exposure time: 24 hours	0.46	1.72	57.7
concentration: 41.9 (µM), S9 metabolic activation: with S9, exposure time: 3-4 hours	0.3	1.28	86.9
concentration: 41.9 (µM), S9 metabolic activation: without S9, exposure time: 24 hours	0.42	1.28	65.6
concentration: 52.4 (µM), S9 metabolic activation: with S9, exposure time: 3-4 hours	0.27	1.12	52.5
concentration: 52.4 (µM), S9 metabolic activation: without S9, exposure time: 24 hours	0.52	1.82	62.1
concentration: 65.5 (µM), S9 metabolic activation: with S9, exposure time: 3-4 hours	0.18	1.2	70.7
concentration: 65.5 (µM), S9 metabolic activation: without S9, exposure time: 24 hours	0.54	1.52	53.8
concentration: 81.9 (µM), S9 metabolic activation: with S9, exposure time: 3-4 hours	0.14	0.94	71.4
concentration: 81.9 (µM), S9 metabolic activation: without S9, exposure time: 24 hours	0.84	2.22	72.8
concentration: 102 (µM), S9 metabolic activation: with S9, exposure time: 3-4 hours	0.22	0.96	66.8
concentration: 102 (µM), S9 metabolic activation: without S9, exposure time: 24 hours	0.6	1.5	78.5
concentration: 128 (µM), S9 metabolic activation: with S9, exposure time: 3-4 hours	0.18	1.18	66.4
concentration: 128 (µM), S9 metabolic activation: without S9, exposure time: 24 hours	0.6	2.06	77.2
concentration: 160 (µM), S9 metabolic activation: with S9, exposure time: 3-4 hours	0.27	0.98	53.7
concentration: 160 (µM), S9 metabolic activation: without S9, exposure time: 24 hours	0.76	3.04	81.8
concentration: 200 (µM), S9 metabolic activation: with S9, exposure time: 3-4 hours	0.06	1.2	91.7
concentration: 200 (µM), S9 metabolic activation: without S9, exposure time: 24 hours	0.86	2	63.6

OCC(CO)(CBr)CBr [2,2-Bis(bromomethyl)-1,3-propanediol]
Conditions	hypodiploid nuclei frequency, CHO-K1 [3] [%]	micronucleus frequency, CHO-K1 [2] [%]	relative survival, CHO-K1 [1]
concentration: 4.5 (µM), S9 metabolic activation: with S9, exposure time: 3-4 hours	0.22	1.18	114
concentration: 4.5 (µM), S9 metabolic activation: without S9, exposure time: 24 hours	0.56	1.1	113
concentration: 5.63 (µM), S9 metabolic activation: with S9, exposure time: 3-4 hours	0.34	1.52	131
concentration: 5.63 (µM), S9 metabolic activation: without S9, exposure time: 24 hours	0.54	1.38	95.5
concentration: 7.04 (µM), S9 metabolic activation: with S9, exposure time: 3-4 hours	0.16	1.68	112
concentration: 7.04 (µM), S9 metabolic activation: without S9, exposure time: 24 hours	0.44	1.6	106
concentration: 8.8 (µM), S9 metabolic activation: with S9, exposure time: 3-4 hours	0.14	1.42	118
concentration: 8.8 (µM), S9 metabolic activation: without S9, exposure time: 24 hours	0.62	1.38	121
concentration: 11 (µM), S9 metabolic activation: with S9, exposure time: 3-4 hours	0.22	1.54	113
concentration: 11 (µM), S9 metabolic activation: without S9, exposure time: 24 hours	0.5	1.28	109
concentration: 13.7 (µM), S9 metabolic activation: with S9, exposure time: 3-4 hours	0.24	1.66	109
concentration: 13.7 (µM), S9 metabolic activation: without S9, exposure time: 24 hours	0.5	1.58	109
concentration: 17.2 (µM), S9 metabolic activation: with S9, exposure time: 3-4 hours	0.3	1.78	99
concentration: 17.2 (µM), S9 metabolic activation: without S9, exposure time: 24 hours	0.8	1.26	109
concentration: 21.5 (µM), S9 metabolic activation: with S9, exposure time: 3-4 hours	0.12	1.6	103
concentration: 21.5 (µM), S9 metabolic activation: without S9, exposure time: 24 hours	0.52	1.14	103
concentration: 26.8 (µM), S9 metabolic activation: with S9, exposure time: 3-4 hours	0.16	0.94	126
concentration: 26.8 (µM), S9 metabolic activation: without S9, exposure time: 24 hours	0.58	1.88	107
concentration: 33.6 (µM), S9 metabolic activation: with S9, exposure time: 3-4 hours	0.1	1.08	119
concentration: 33.6 (µM), S9 metabolic activation: without S9, exposure time: 24 hours	0.42	2	103
concentration: 41.9 (µM), S9 metabolic activation: with S9, exposure time: 3-4 hours	0.24	1.04	104
concentration: 41.9 (µM), S9 metabolic activation: without S9, exposure time: 24 hours	0.54	1.2	106
concentration: 52.4 (µM), S9 metabolic activation: with S9, exposure time: 3-4 hours	0.26	0.9	95.1
concentration: 52.4 (µM), S9 metabolic activation: without S9, exposure time: 24 hours	0.7	1.22	91
concentration: 65.5 (µM), S9 metabolic activation: with S9, exposure time: 3-4 hours	0.28	1.1	93
concentration: 65.5 (µM), S9 metabolic activation: without S9, exposure time: 24 hours	0.46	1.46	91
concentration: 81.9 (µM), S9 metabolic activation: with S9, exposure time: 3-4 hours	0.32	1.44	104
concentration: 81.9 (µM), S9 metabolic activation: without S9, exposure time: 24 hours	0.56	1.06	108
concentration: 102 (µM), S9 metabolic activation: with S9, exposure time: 3-4 hours	0.12	1.14	99.9
concentration: 102 (µM), S9 metabolic activation: without S9, exposure time: 24 hours	0.52	1.44	104
concentration: 128 (µM), S9 metabolic activation: with S9, exposure time: 3-4 hours	0.22	1.06	100
concentration: 128 (µM), S9 metabolic activation: without S9, exposure time: 24 hours	0.78	1.42	81.9
concentration: 160 (µM), S9 metabolic activation: with S9, exposure time: 3-4 hours	0.3	1.34	107
concentration: 160 (µM), S9 metabolic activation: without S9, exposure time: 24 hours	0.6	1.4	96
concentration: 200 (µM), S9 metabolic activation: with S9, exposure time: 3-4 hours	0.26	1.78	100
concentration: 200 (µM), S9 metabolic activation: without S9, exposure time: 24 hours	0.78	2.2	78.6
